According to PubChem BioAssay AID1745847 (National Center for Advancing Translational Sciences (NCATS), 2022):
About 670 (32%) of roughly 2,100 compounds were called active. Inconclusive results, whose numbers are uncertain, are shown with a selection of clear calls. The call rests on the fitted dose curve; in most records, active means well fitted inhibition curve with a large enough effect; inconclusive means small, poorly fitted or top-dose-only effect; inactive means no such curve, though single readings can be large or run the other way. Where the call is inconclusive, the potency comes from a doubtful curve fit.
On the % scale 0 is the no-effect control and ±100 the full control effect; potency means the concentration at half of the fitted maximal effect; tags describe the fitted curve by direction and shape.

Test: CMV-Luciferase Counterscreen for Inhibitors of ATXN expression; further: nearly all actives have a fitted effect of over 55% in size
Conditions: HEK-293 CMV-luciferase reporter, luminescence, 24 h; series mostly up to 57.5 µM
With O=C(CN1CCCc2ccccc21)N/N=C/c1ccccc1O the Potency was inconclusive: 2 µM [inhibitor, partial curve, poor fit].
For CN(C)CCOc1nc(-c2ccccc2)nc2c1oc1ccccc12, the Potency was inconclusive: 28.2 µM [inhibitor, partial curve, poor fit].
With CN(CC(=O)NCc1ccc(F)cc1)CC(=O)Nc1ccc(Cl)c(C(F)(F)F)c1 the Potency was active: 17.8 µM.
For O=C(CCCN1C(=O)/C(=C/c2ccccc2Cl)SC1=S)NNC(=O)c1ccc(Cl)cc1Cl, the Potency was active: 2.82 µM.
With CCc1nc2c(OCCOc3ccc(F)cc3)cccn2c1N(C=O)Cc1ccc(OC)cc1 the Potency was inconclusive: 25.1 µM [inhibitor, single point].
In the case of CC(C)CCn1c(N)c(S(=O)(=O)c2cccs2)c2nc3ccccc3nc21, the Potency is reported as active: 3.16 µM.
With NS(=O)(=O)c1ccc(N2N=C(c3ccccc3)CC2c2cccc(Br)c2)cc1 (stereo unspecified) the Potency was active: 17.8 µM.
With Oc1c(CN2CCCCC2)ccc2cccnc12 the Potency was active: 12.6 µM.
For CC(=O)NC(c1ccc2ccccc2c1)c1ccc2cccnc2c1O (stereo unspecified), the Potency was active: 0.355 µM.
In the case of O=S(=O)(c1ccc2c(c1)OCCO2)N1CCC(c2nc3ccc(Cl)cc3[nH]2)CC1, the Potency is reported as active: 3.98 µM.
With Cc1cccc(C(=O)N/N=C2\CS(=O)(=O)N(C)c3ccsc32)c1 the Potency was inconclusive: 25.1 µM [inhibitor, single point].
For CCOC(=O)C1=CCN(S(=O)(=O)c2ccc(C)cc2)C1c1cccc(Cl)c1 (stereo unspecified), the Potency was inconclusive: 28.2 µM [inhibitor, single point].
In the case of Cn1c(CCN2CCN(c3ccccn3)CC2)nc2cc(NC(=O)COc3ccc(Cl)cc3)ccc21, the Potency is reported as inconclusive: 1.58 µM [inhibitor, partial curve].
In the case of COc1cc(C#Cc2c(-c3cncn3C)n(C)c3ccc(-c4cc(OC)c(OC)c(OC)c4)cc23)cc(OC)c1, the Potency is reported as inconclusive: 22.4 µM [inhibitor, single point].
With NS(=O)(=O)c1ccc(CCNc2nn3c(-c4cccc(OC(F)(F)F)c4)cnc3s2)cc1 the Potency was inconclusive: 0.891 µM [inhibitor, full curve, poor fit].
For COc1ccc(-c2nnc(NC(=O)c3ccc(S(=O)(=O)N4COCC4(C)C)cc3)o2)cc1, the Potency was inconclusive: 1.41 µM [inhibitor, partial curve, poor fit].
For COc1cccc(CN2CCC2(C)C(=O)Nc2cccc3cccnc23)c1OC (stereo unspecified), the Potency was inconclusive: 8.91 µM [inhibitor, single point].
For Cc1nn(Cc2ccc(Cl)cc2)c(C)c1NC(=O)c1noc2c1CCc1ccccc1-2, the Potency was inconclusive: 25.1 µM [inhibitor, partial curve, poor fit].
In the case of O=C(/C=C\c1ccco1)Nc1nc(-c2ccc3ccccc3c2)cs1, the Potency is reported as active: 3.16 µM.
In the case of O=C(N/N=C/c1ccccc1O)C1SCCCS1, the Potency is reported as inconclusive: 12.6 µM [inhibitor, partial curve, poor fit].
For N#C/C(=C\Nc1ccc2cn[nH]c2c1)c1nc(-c2ccc(Cl)cc2)cs1, the activity change, negative = inhibition was inactive: 11% [at 11.4 µM].
With O=C(Nc1ccc(OCC(F)(F)C(F)F)c(C(F)(F)F)c1)c1ccc(Cl)cc1 the Potency was inconclusive: 5.01 µM [inhibitor, full curve, poor fit].
With CC1(C(=O)NC2CCN(Cc3ccccc3)CC2)CCN1Cc1ccc2ccccc2c1 (stereo unspecified) the Potency was inconclusive: 3.98 µM [inhibitor, single point].
In the case of O=C(N/N=C/c1cc(Br)ccc1O)c1ccncc1, the Potency is reported as active: 1 µM.
In the case of CS(=O)(=O)N(CC(O)CON=C1c2ccccc2-c2ccccc21)c1ccc(F)cc1 (stereo unspecified), the Potency is reported as inconclusive: 3.55 µM [inhibitor, single point].
For Oc1ccc2ccccc2c1/C=C/c1ccc2c(Br)cc(Br)c(O)c2n1, the Potency was active: 3.16 µM.
In the case of CC(C)COCc1ccc(O)c2ncccc12, the Potency is reported as inconclusive: 3.98 µM [inhibitor, partial curve].
For CCCCn1c(=N)n(CCOc2ccc(C)cc2)c2ccccc21, the Potency was active: 10 µM.
For Cc1nc2c(OCc3ccc(C(F)(F)F)cc3)cccn2c1N(C)CC1CC1, the Potency was inconclusive: 5.62 µM [inhibitor, single point].
With CC[C@H]1CN2CCc3cc(OC)c(OC)cc3C2C[C@@H]1C[C@H]1NCCc2cc(OC)c(OC)cc21 (stereo partly specified) the Potency was active: 1.12 µM.
In the case of Cc1nc(N=C(N)N)nc2c(C)cccc12, the Potency is reported as “inactive”.
With O=C(Nc1ccc(NC(=O)c2ccc(Cl)cc2Cl)cc1)c1cccs1 the Potency was “inactive”.
For S=C(Nc1ccc(Cl)c(Cl)c1)NC1CCCCC1, the Potency was inconclusive: 39.8 µM [inhibitor, single point].
For CN(C)CCCN(C(=O)c1ccc(S(=O)(=O)N(C)Cc2ccccc2)cc1)c1nc2c(F)cccc2s1, the Potency was “inactive”.
In the case of CCSc1nc2ccccc2n1C(=O)/C=C\c1ccc(OC)c(OC)c1, the Potency is reported as active: 14.1 µM.
For O=C(CSc1n[nH]c(-c2ccccn2)n1)Nc1ccc(F)cc1, the Potency was active: 8.91 µM.
For COc1cccc(-c2ccc(NC(=O)C3CCCN(Cc4cnn(C(C)C)c4)C3)cc2)c1 (stereo unspecified), the Potency was inconclusive: 6.31 µM [inhibitor, single point].
In the case of COC1C=CC=C(C)C(=O)NC2=CC(=O)C(N)=C(CC(C)CC(OC)C(O)C(C)C=C(C)C1OC(N)=O)C2=O (stereo unspecified), the Potency is reported as inconclusive: 12.6 µM [inhibitor, single point].
For Cc1cc(C)n(CCC(=O)N/N=C/c2ccc(O)cc2O)n1, the Potency was inconclusive: 5.62 µM [inhibitor, partial curve, poor fit].
For Cc1nn(-c2ccccn2)c2c1C(=O)CC(C)(C)C2N=[N+]=[N-] (stereo unspecified), the activity change, negative = inhibition was inactive: -24.8% [at 11.4 µM].
With COc1ccccc1-n1c(-c2ccccc2)c[n+]2c1CCc1ccccc1-2 the Potency was inconclusive: 2.82 µM [inhibitor, full curve, poor fit].
In the case of COc1ccc(Br)cc1C(=O)Nc1ccccc1N1CCN(C(=O)c2ccccc2)CC1, the Potency is reported as inconclusive: 3.55 µM [inhibitor, partial curve, poor fit].
With CCn1c2ccccc2c2cc(/C=N/NC(=O)c3ccccc3)ccc21 the Potency was inconclusive: 3.55 µM [inhibitor, full curve, poor fit].
In the case of N#Cc1ccc(-c2nc3cc(Cl)ccc3c(=O)n2O)cc1, the Potency is reported as inconclusive: 3.55 µM [inhibitor, single point].
With CCOC(=O)c1ccc2ncc(C(=O)OCC)c(Nc3ccc(N4CCOCC4)cc3)c2c1 the Potency was inconclusive: 3.55 µM [inhibitor, partial curve, poor fit].
With O=C(Nc1ccc(SC(F)F)cc1)c1cc(-c2ccncc2)nc2ccccc12 the Potency was inconclusive: 7.08 µM [inhibitor, single point].
In the case of O=[N+]([O-])c1c(Nc2ccccn2)cc(Cl)c2nonc12, the Potency is reported as active: 11.2 µM.
With O=c1cc(Nc2ccc3c(c2)OCCO3)[nH]c(=O)n1-c1ccc(Br)cc1 the Potency was “inactive”.
For O=C(Nc1ccc([N+](=O)[O-])cc1)Nc1ccc(Cl)cc1F, the Potency was inconclusive: 2.24 µM [inhibitor, partial curve, poor fit].
With CN(C(=O)c1cnc(N2CCN(c3ncccn3)CC2)c2ccccc12)c1ccc(Cl)cc1 the Potency was inconclusive: 14.1 µM [inhibitor, partial curve, poor fit].
In the case of CN1Cc2c(N3CCOCC3)nc3sc(C(=O)c4ccccc4)c(N)c3c2CC1(C)C, the Potency is reported as inconclusive: 3.16 µM [inhibitor, single point].
With CC(=O)Nc1cccc(-c2ccnc3c2CC(C)(C(=O)Nc2ccc(Cl)cc2)O3)c1 (stereo unspecified) the Potency was inconclusive: 35.5 µM [inhibitor, single point].
With CCOC(=O)COc1ccc(Br)cc1/C=C/c1[nH]c(=O)[nH]c(=O)c1[N+](=O)[O-] the activity change, negative = inhibition was inactive: 3.24% [at 11.4 µM].
For CC1CCCCC1NC(=O)/C(C#N)=C/C=C/c1ccccc1[N+](=O)[O-] (stereo unspecified), the Potency was active: 3.55 µM.
With Cc1cccc(C2CC(c3ccccc3)=NN2c2ccc(S(N)(=O)=O)cc2)c1 (stereo unspecified) the Potency was inconclusive: 35.5 µM [inhibitor, single point].
In the case of Nc1nc(NCCCN2CCOCC2)nc(Nc2cccc(Cl)c2)c1[N+](=O)[O-], the activity change, negative = inhibition is reported as inactive: -21.5% [at 11.4 µM].
In the case of CCOC(=O)c1cnc(-n2nc(C)cc2C)nc1NNc1nc(-c2ccccc2)cc(-c2ccccc2)n1, the Potency is reported as inconclusive: 12.6 µM [inhibitor, partial curve, poor fit].
In the case of CN(CCOc1ccc(Br)cc1)CC(O)COc1ccc(C#N)cc1 (stereo unspecified), the Potency is reported as inconclusive: 15.8 µM [inhibitor, partial curve].
For C=CCc1cccc(/C=N/NC(=O)CCC(=O)Nc2ccc(F)cc2)c1O, the Potency was active: 3.98 µM.
In the case of Cc1cc(C(=O)N/N=C/c2cc(Br)cc([N+](=O)[O-])c2O)c2ccccc2n1, the Potency is reported as active: 3.55 µM.
For CCN1CCN(C2=C(NS(=O)(=O)c3ccc(C)cc3)C(=O)c3ccccc3C2=O)CC1, the Potency was active: 3.55 µM.
With COc1ccc(S(=O)(=O)N(C)C)cc1NC(=O)C1CCN(c2ncnc3sc(C)c(C)c23)CC1 the Potency was active: 10 µM.
With CC(=O)c1cccc(NC(=O)C2Cc3c(-c4cccc(C(C)=O)c4)ccnc3O2)c1 (stereo unspecified) the Potency was inconclusive: 3.16 µM [inhibitor, partial curve, poor fit].
In the case of COC(=O)c1sc(NC(=O)c2ccc(OC)cc2OC)nc1C, the Potency is reported as inconclusive: 10 µM [inhibitor, partial curve, poor fit].
For Cc1ccc(NC(=O)CSc2ccc(Br)cc2)cc1S(=O)(=O)N1CCOCC1, the Potency was active: 22.4 µM.
With Cc1ccc2nc(NC(=O)/C=C/c3ccc4c(c3)OCO4)sc2c1 the Potency was “inactive”.
